Laboratory results reported in PubChem BioAssay AID504832 (National Center for Advancing Translational Sciences (NCATS), 2011).
Screen size: about 310,000 compounds; about 18,000 (5.8%) were called active. Inconclusive means that the source gave no clear call. Such entries were picked first, then a sample of the others. Calls come from the whole dose curve; as a rule, active = well fitted inhibition curve with a large enough effect; inconclusive = small, poorly fitted or top-dose-only effect, or another doubt; inactive = no such curve, though single readings can be large or run the other way. Potencies of inconclusive entries are left out as doubtful fits.

Test: Primary qHTS for delayed death inhibitors of the malarial parasite plastid, 48 hour incubation
Settings: P. falciparum luciferase growth in erythrocytes; series mostly up to 28.7 µM
Procedure, shortened: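 First compound was added to culture medium, then infected red cells at 0.1% parasitemia and 2% hematocrit (final). After incubation at 37 C under 5% CO2, luciferase detection reagent was dispensed and light output recorded.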
Potency is the fitted concentration of half-maximal effect; tags give direction and shape of the fitted curve.

| SMILES | Potency |
| --- | --- |
| CC(=O)NC(c1ccc(C(C)C)cc1)c1ccc2cccnc2c1O (centres undefined) | active: 7.38 µM |
| COCCn1c(SCc2ccc(OC)c(F)c2)nc2ccccc2c1=O | inconclusive [inhibitor, single point] |
| COc1ccc(S(=O)(=O)N2CCOCC2)cc1NC(=O)Cc1c(F)cccc1Cl | inconclusive [inhibitor, single point] |
| CC1CCCCC1N(C)C1CCN(C(=O)CNC(=O)/C=C/c2cccc(Cl)c2)CC1 (centres undefined) | inconclusive [inhibitor, partial curve, poor fit] |
| O=C(N/N=C/c1cn(-c2ccccc2)nc1-c1cc2ccccc2o1)c1ccncc1 | inactive |
| CN(CC(=O)Nc1c(Cl)cccc1Cl)C(=O)c1cc(-c2cccs2)nn1-c1ccccc1 | inconclusive [inhibitor, single point] |
| CC(C)Sc1oc(-c2ccco2)nc1S(=O)(=O)c1ccc(F)cc1 | inconclusive [inhibitor, single point] |
| CCOC(=O)C1CCN(C(=O)CN(c2cc(Cl)ccc2OC)S(=O)(=O)c2ccccc2)CC1 | active: 14.7 µM |
| Cc1cc(OC(=O)CCNC(=O)OC(C)(C)C)c2c3c(c(=O)oc2c1)CCC3 | active: 4.65 µM |
| CC(C)n1c(SCC(=O)Nc2nc3c(s2)CCCC3)nc2c1c(=O)n(C)c(=O)n2C | inconclusive [inhibitor, single point] |
| COc1ccc(N2CCN(C(=O)CNC(=O)c3cn(-c4ccccc4OC)c(=O)c4ccccc34)CC2)cc1 | inconclusive [inhibitor, single point] |
| CCOC(=O)c1sc(NC(=O)Cn2nnc3sc4c(c3c2=O)CCC(C(C)(C)C)C4)nc1C (centres undefined) | active: 9.28 µM |
| COc1ccccc1CN1CCNC(=O)C1CC(=O)O (centres undefined) | inactive |
| O=C(CCC(=O)Nc1ccccc1Cl)NNC(=O)COc1ccc([N+](=O)[O-])cc1 | inactive |
| CC(=O)c1cccc(CN2CCCC(CCC(=O)NCc3ccc(F)c(F)c3)C2)c1 (centres undefined) | inconclusive [inhibitor, partial curve, poor fit] |
| CC1CCC(NC(=O)CSc2nnc(-c3cccnc3)o2)CC1 (centres undefined) | inactive |
| Cc1cccc(CCN(Cc2cc3cccc(C)c3[nH]c2=O)C(=O)N2CCOCC2)c1 | inconclusive [inhibitor, single point] |
| Fc1ccc(C2c3[nH]c4ccccc4c3CCN2Cc2ccoc2)cc1 (centres undefined) | inconclusive [inhibitor, single point] |
| NC(=S)N/N=C1\CC(n2nnnc2-c2ccccc2)C2COC1O2 (centres undefined) | inactive |
